Target: T1, four tandem FRBL domains expressed from pBP0725 pSH1-FRBl.FRBl'.LS.FRBl''.FRBl'''
T1 chain: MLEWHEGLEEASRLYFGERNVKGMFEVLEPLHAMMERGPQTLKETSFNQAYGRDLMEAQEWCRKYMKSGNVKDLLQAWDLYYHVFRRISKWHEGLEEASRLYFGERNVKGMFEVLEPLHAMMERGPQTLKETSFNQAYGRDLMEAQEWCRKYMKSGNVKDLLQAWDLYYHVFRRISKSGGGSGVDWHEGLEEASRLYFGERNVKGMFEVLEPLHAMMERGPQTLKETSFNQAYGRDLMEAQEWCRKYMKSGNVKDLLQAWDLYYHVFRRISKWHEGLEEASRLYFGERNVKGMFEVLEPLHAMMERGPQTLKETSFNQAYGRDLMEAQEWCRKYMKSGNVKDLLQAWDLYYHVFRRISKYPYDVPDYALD
Test: cell-based or functional assay

IC50 of rapamycin or C7-isopropoxy-rapamycin (the small-molecule heterodimerizer, not of a protein) for loss of SRα-SEAP reporter activity in transfected 293 cells: ~3 nM
B1: FKBP12v36-ΔCaspase-9 (iCaspase-9) expressed from pBP0044 pSH1-iCaspase9wt (other)
chain: [about 100 residues not spelt out]GGGSGVDGFGDVGALESLRGNADLAYILSMEPCGHCLIINNVNFCRESGLRTRTGSNIDCEKLRRRFSSLHFMVEVKGDLTAKKMVLALLELARQDHGALDCCVVVILSHGCQASHLQFPGAVYGTDGCPVSVEKIVNIFNGTSCPSLGGKPKLFFIQACGGEQKDHGFEVASTSPEDESPGSNPEPDATPFQEGLRTFDQLDAISSLPTPSDIFVSYSTFPGFVSWRDPKSGSWYVETLDDIFEQWAHSEDLQSLLLRVANAVSVKGIYKQMPGCFNFLRKKLFFKTSASRAEGRGSLLTCGDVEENPGP

From patent US20240368574A1 (BELLICUM PHARMACEUTICALS, published 2024)
